Consider 45 sequences from the supplement of paper PMC11417369.

± gives the standard deviation of the averaged measurements. Some of the results follow.

This assay relates to PfAP2-EXP AP2 domain (GST-tagged). Kind of assay: gcPBM binding intensity (ln(normalized median fluorescence intensity)); higher = stronger DNA binding. In outline:
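Binding intensity is the highest Masliner-normalised natural-log median intensity over replicate spots in either probe orientation. To obtain it, GST-tagged P. falciparum DNA-binding domains made in E. coli were incubated for 1 h on an Agilent 4 × 180k array of primer-extended double-stranded 36-bp intergenic genomic probes plus negative controls. Detection used Alexa488 anti-GST antibody with scanning at 488 nm.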
As for “TTAATTATAAGAAAAAGTACTCATTACATTATAGAA [XGTACX_site678]”, the “gcPBM binding intensity (ln)” value is 8.53 ± 0.092.

Consider “TGAAAAGTAAAATACACACACATAATATAATTTATA [CACACA_site1989]”, for which the “gcPBM binding intensity (ln)” value amounted to 8.57 ± 0.47.

Consider “CATATACATCCACATACACACATACACCCATACACA [CACACA_site5038]”, for which the “gcPBM binding intensity (ln)” value was 8.73 ± 0.46.

Turning to “GTTCAAAATATGAACACACACATATAGATTTATATA [CACACA_site7054]”, the “gcPBM binding intensity (ln)” value worked out at 8.39 ± 0.35.

As for “ATCATTTTTAAAGGAACACACAAAAAAAATTAGAAT [CACACA_site1370]”, the “gcPBM binding intensity (ln)” value came to 8.81 ± 0.47.

For “AAAGGATATAGACACACACACACATATATATATATA [CACACA_site2200]”, the “gcPBM binding intensity (ln)” value came out at 10.2 ± 0.14.

As for “ATTATTTTTTTTGTTACACACATGACTTATTTTTAT [CACACA_site3228]”, the “gcPBM binding intensity (ln)” value came out at 8.89 ± 0.44.

Consider “GCCAAAAGGATATGCACACACACACCCATATATATA [CACACA_site2198]”, for which the “gcPBM binding intensity (ln)” value was 8.79 ± 0.38.

Turning to “CAAGGAACCGGACACACACACATAAATGTATTTATA [CACACA_site4574]”, the “gcPBM binding intensity (ln)” value was found to be 8.46 ± 0.5.

On to “CATTATCATGTTTTTTGTACTCATAATAAAAAGCAG [XGTACX_site2056]”, for which the “gcPBM binding intensity (ln)” value was found to be 8.37 ± 0.27.

With “AATAATTGTTAAAGTTGTACTATACGTATATAAGAA [XGTACX_site1432]”, the “gcPBM binding intensity (ln)” value stood at 8.86 ± 0.33.

Regarding “AAAAATGAATTATTTTGTACATATATATATATATAT [XGTACX_site3410]”, the “gcPBM binding intensity (ln)” value is 10.1 ± 0.38.

For “ATTTACAAAAGGAAAGTGCAAACATGTGATTAAACA [CACACA_negctrl_site714]”, the “gcPBM binding intensity (ln)” value amounted to 9 ± 0.3.

“TATATATAGAAACACACACACACCAAAGCGTAGCGC [CACACA_site62]”: the “gcPBM binding intensity (ln)” value was determined as 8.77 ± 0.43.

For the sequence “ATAAAGATATGACACACACACATATTATAGATATAT [CACACA_site7434]”, the “gcPBM binding intensity (ln)” value came to 8.54 ± 0.59.

Regarding “ATCAATTTAATTTATTGTACTTGTTTGTTTTTTTAT [XGTACX_site7544]”, the “gcPBM binding intensity (ln)” value is 8.54 ± 0.32.

As for “GATAACATAATATGTTGTACATAAAAATTTTTATCA [XGTACX_site1969]”, the “gcPBM binding intensity (ln)” value came out at 8.61 ± 0.37.

For the sequence “AACTTATTTAAATTCACACATATATAAAATACTTAT [CACACA_site4394]”, the “gcPBM binding intensity (ln)” value came out at 8.38 ± 0.42.

On to “ACATATGACTATAATACACACTTGTATTATTAATAT [CACACA_site6951]”, for which the “gcPBM binding intensity (ln)” value amounted to 8.29 ± 0.34.

As to “TACTCATAATATTGATAATTAAAAAGATAAACTATT [XGTACX_negctrl_site299]”, the “gcPBM binding intensity (ln)” value was 8.245 ± 0.049.

With “AATTTTATTACTTTTACACACCTATATATTATTCAT [CACACA_site3273]”, the “gcPBM binding intensity (ln)” value came out at 8.81 ± 0.48.

With “ATTATTTTATTATAGTGTACTTTTTTAATCAAAGGA [XGTACX_site8921]”, the “gcPBM binding intensity (ln)” value came to 8.49 ± 0.15.

In the case of “TTTTAAAAAAAATATAAAAAAAGAGGAGGGATGGTA [GTGCAC_negctrl_site35]”, the “gcPBM binding intensity (ln)” value is 8.68 ± 0.41.

With “TAATTTAAACAAAAAAGTACAAATTTCTTTTTATTA [XGTACX_site5244]”, the “gcPBM binding intensity (ln)” value came out at 7.83 ± 0.31.

Take “ATTTTAATTACATATACACACAAAGGTTCATAACAA [CACACA_site9008]”: the “gcPBM binding intensity (ln)” value was 8.46 ± 0.39.

Turning to TATGTTTTTACGTGTGTGCACTTTGTAGAGATAAGT, the “gcPBM binding intensity (ln)” value stood at 9.29 ± 0.12.

Turning to “AAAAAAAAAAAAATATGTACTTATTTTTATGTTAAA [XGTACX_site8802]”, the “gcPBM binding intensity (ln)” value stood at 8.32 ± 0.24.

Consider “TACTATATAAGTAAGGCATGCATGCCGATTTTTTTA [TGCATGCA_site100]”, for which the “gcPBM binding intensity (ln)” value was found to be 9.11 ± 0.28.

Turning to “TTCTTTAATACTTATTGTACAATATAATAATCACAA [XGTACX_site6364]”, the “gcPBM binding intensity (ln)” value worked out at 8.88 ± 0.25.

Take “TGAAACCGTTACATGTGTACATATGTTACACATAAT [XGTACX_site7250]”: the “gcPBM binding intensity (ln)” value was 8.51 ± 0.28.

In the case of “TACTTAAAATATTTAACAAATAAATAAATAAATAAA [XGTACX_negctrl_site523]”, the “gcPBM binding intensity (ln)” value was 8.52 ± 0.16.

As for “ATTAGATATGTAAACTAAAATTATATTCATGATAAT [TGCATGCA_negctrl_site182]”, the “gcPBM binding intensity (ln)” value came out at 8.2 ± 0.63.

Regarding “TCTAACAACATGCGCACACACATGAATATTCATATT [CACACA_site1540]”, the “gcPBM binding intensity (ln)” value worked out at 8.86 ± 0.11.

Consider “ATATTTTTATTTTCTTTACACACCACATAATTTTTT [CACACA_site4060]”, for which the “gcPBM binding intensity (ln)” value was 8.97 ± 0.5.

Turning to “TTTCTTTTACATATTTGTACATATATAAATTTATAT [XGTACX_site1787]”, the “gcPBM binding intensity (ln)” value turned out to be 8.91 ± 0.35.

Take “TCACATCTTATATACTGTACATTTCGAATATAAATT [XGTACX_site2508]”: the “gcPBM binding intensity (ln)” value worked out at 8.82 ± 0.39.

With “CATAATAAGTATAACGTTAGTTACAAACAGCTTGTT [CACACA_negctrl_site937]”, the “gcPBM binding intensity (ln)” value is 8.76 ± 0.4.

On to “AAAATAATGTATATAGTGCAAATGAAAACGAAAAAA [GTGCAC_site9455]”, for which the “gcPBM binding intensity (ln)” value turned out to be 9.28 ± 0.42.

Consider “TTTTTAAATAAATGTTTTTATTATATACATATCAAT [TGCATGCA_negctrl_site423]”, for which the “gcPBM binding intensity (ln)” value came out at 8.1 ± 0.47.

Take TATTATTCAAAATTTGTGCACAAAATTAAAGGAACA: the “gcPBM binding intensity (ln)” value was determined as 8.96 ± 0.38.

On to “TTTGTTTTTTTGAGAGTGCAATATATATAAAAAGGG [GTGCAC_site9691]”, for which the “gcPBM binding intensity (ln)” value amounted to 9.34 ± 0.36.

“TTGGTGATATTTTTCTCACACATTTACCAGAGATGT [CACACA_site4684]”: the “gcPBM binding intensity (ln)” value was determined as 8.44 ± 0.37.

In the case of “GTAGATATTTATTGAGTGCATGTTATAAAGGGAAAA [GTGCAC_site9481]”, the “gcPBM binding intensity (ln)” value worked out at 8.92 ± 0.24.

Consider “TTTTTATTTTTTTACAGTACATAAAATAAATAAATA [XGTACX_site6596]”, for which the “gcPBM binding intensity (ln)” value was 8.18 ± 0.4.

Take “TTTTTTTTATGGAAACGTACATACATACATTAAAGA [XGTACX_site7401]”: the “gcPBM binding intensity (ln)” value turned out to be 8.38 ± 0.39.
